Out of some 94,000 compounds screened, about 4,000 (4.3%) were called active. Inconclusive means that the source gave no clear call. Such entries were picked first, then a sample of the others. The call rests on the fitted dose curve; in most records, active means well fitted inhibition curve with a large enough effect; inconclusive means small, poorly fitted or top-dose-only effect; inactive means no such curve, though single readings can be large or run the other way. Potencies of inconclusive entries are doubtful fits and often do not repeat.
experiment: Cytotoxic Profiling in NIH 3T3 Cell Line of Diverse Libraries Using Quantitative High-Throughput Screening; details: NIH 3T3 viability, CellTiter-Glo ATP luminescence, 48-72 h; activity change, negative = cytotoxicity: at 96.7 µM (top of the series) unless noted; series mostly up to 96.7 µM; further: nearly all actives have a fitted effect of over 55% in size
Outline: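 NIH 3T3 cells at 400 cells/well received 23 nL of compound by pintool and were incubated 48 or 72 h at 37 °C. Viability was read as ATP-coupled CellTiter-Glo luminescence.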
On the % scale 0 is the no-effect control and ±100 the full control effect; potency means the concentration at half of the fitted maximal effect; tags describe the fitted curve by direction and shape.

| Compound | activity change, negative = cytotoxicity | Potency |
| --- | --- | --- |
| CC(C)NC(=O)N1CCC2(CC1)CN(C(=O)Cc1csc(N)n1)Cc1ccccc1O2 | inactive: -0.724% | – |
| COc1ccc(-c2nc(C(C)C)nc3c2CCN(C(=O)Cc2ccc(F)cc2)CC3)cc1 | – | inconclusive: 50.1 µM [inhibitor, partial curve, poor fit] |
| CN(Cc1cccn1C)C1CCCc2ccccc21 (stereo not drawn) | inactive: -20% [at 138 µM] | – |
| COCCCn1c(=O)c(C(=O)N2CCN(C(=O)NC3CCCC3)CC2)nc2cccnc21 | inactive: -16.3% | – |
| Cc1ccc(-c2ccc3c(n2)CN(C)C(=O)CO3)cc1 | – | inconclusive: 100 µM [inhibitor, partial curve] |
| COc1ccccc1-c1nc(COC(=O)C2=CN(Cc3ccccc3)S(=O)(=O)N=C2C)no1 | – | inconclusive: 11.2 µM [inhibitor, full curve, poor fit] |
| COc1cc(C)c2c(c1C)C[C@H](C(C)C(=O)NC(C)(C)C)CC2 (stereo partly drawn) | – | inconclusive: 89.1 µM [inhibitor, partial curve] |
| NC(=O)CN1C(=O)CO[C@H]2CN(Cc3ccc(C(F)(F)F)cc3)C[C@H]21 | – | inconclusive: 126 µM [inhibitor, partial curve, poor fit] |
| CCOc1cccc(CN2C[C@@H](COC)[C@H](C(=O)N(C)C)C2)c1 | inactive: 0.548% | – |
| O=C(C1CC1)N1CC(Oc2ccc(-c3noc(C4CCOCC4)n3)cc2)C1 | – | inconclusive: 22.4 µM [inhibitor, partial curve] |
| CN(Cc1ccccc1)C(=O)C[C@@H]1CCNC[C@@H]1Cc1cc(CSc2ccccc2)on1 | – | inconclusive: 89.1 µM [inhibitor, single point] |
| O=C(O)C1CC2(CCN(C(=O)c3ccc4c(c3)OCCO4)CC2)CN1 (stereo not drawn) | inactive: 0.996% | – |
| COc1ccccc1NC(=O)C1c2ccccc2C(=O)N(CC(C)C)C12CCCC2 (stereo not drawn) | – | inconclusive: 70.8 µM [inhibitor, single point] |
| O=C(c1nnc(CNC2CC2)n1-c1ccccc1)N1CCC[C@@H]1C(c1ccccc1)c1ccccc1 | – | inconclusive: 63.1 µM [inhibitor, partial curve, poor fit] |
| CCOc1ccccc1CN1CCC(N2CCCC(C(=O)NC3CC3)C2)CC1 (stereo not drawn) | inactive: -10.6% | – |
| CCCC(=O)N1CCC(N2C(=O)N(Cc3cccnc3)CC23CCOC3)CC1 (stereo not drawn) | – | inconclusive: 50.1 µM [inhibitor, partial curve, poor fit] |
| O=C(Cc1ccc(Br)cc1)NCc1nnc2ccc(-c3ccccc3)nn12 | inactive: -11.3% | – |
| CCc1noc(CC2CCOC3(CCN(S(=O)(=O)c4cccc(OC)c4)CC3)C2)n1 (stereo not drawn) | – | inconclusive: 28.2 µM [inhibitor, partial curve] |
